Structures are written as SMILES. Hit rate of the full screen: of about 52,000 compounds, about 4,300 (8.3%) were called active. No stated cut-off is given here; in the data, active means survival mostly below about 52% (no sharp cut-off); inactive means mostly above about 56%. Some of the results follow.

91 compounds from PubChem BioAssay AID463173 (ICCB-Longwood Screening Facility, Harvard Medical School, 2010) can be followed below.

The test system of this experiment is DeltatarO mutant. Put plainly: growth inhibition of S. aureus wild type versus tarO mutant, primary screen, teichoic acid synthesis inhibitors, RN4220, OD600 (AID 463173). The conditions noted are these: OD600, 18 h, stronger effect = lower value, screened at 18.75 µg/mL (by protocol).
With `Cc1ccc(C)c(N2CCN(C(=O)c3cc(S(=O)(=O)N4CCCC4)cn3C)CC2)c1`, the survival is inactive: 64%.

Consider `CCOC(=O)C1CCC(CN(Cc2c(Cl)cccc2Cl)S(=O)(=O)c2ccc(F)cc2)CC1` (stereo unspecified), for which the survival was inactive: 58%. With `COc1cc(C(=O)N2CCc3c([nH]c4ccccc34)C2c2ccccc2)cc(OC)c1OC` (stereo unspecified) the figure was inactive: 68%; with `Cc1cccc(C(=O)Nc2nc(-c3ccc(Br)cc3)ns2)c1`, inactive: 74%. `CC(=O)N1CCC2(CC1)OC(=O)C(C)=C2C(=O)Nc1ccccc1C(F)(F)F`: the survival is inactive: 81%. `CCOC(=O)C1CCN(C(=O)Cn2ncc3c([nH]c4ccc(C)cc43)c2=O)CC1`: the survival is inactive: 72%. Turning to `Cc1cccc(N(CC(=O)NCCSc2ccc(Cl)cc2)S(=O)(=O)c2ccccc2)c1C`, the survival was inactive: 49%. With `COc1ccccc1OCCn1c(-c2ccc(Br)cc2)nc2ccccc2c1=O` the figure was inactive: 71%.

On to `CC1CCCCN1Cc1c(C#N)c2ccccc2n1C` (stereo unspecified), for which the survival was inactive: 89%. Take `Cc1ccc(C(=O)Nc2ccc(Cl)c(-c3nc4ncccc4o3)c2)c(C)c1`: the survival was inactive: 50%. In the case of `Cc1ccccc1OCc1ccc(-c2nc(C#N)c(NCCCN(C)C)o2)o1`, the survival is inactive: 59%. As for `COc1cccc(-c2nc(-c3ccc(-c4ccccc4)nc3OC)no2)c1`, the survival is active: 10%. With `CCOC(=O)C1CCN(C(c2ccccc2OC)c2c(O)cc(C)n(CCOC)c2=O)CC1` (stereo unspecified) the figure was inactive: 89%; with `O=C(Nc1ccc(F)cc1)[C@H](Cc1ccccc1)N1Cc2ccccc2C1=O`, inactive: 89%; with `Cn1nnnc1SCCCNCc1cccc(OCc2ccc(Cl)cc2)c1`, active: -3%. With `CC(C)CCOc1ccc(C(=O)Nc2sc3c(c2C#N)CCCCC3)cc1` the figure was inactive: 127%. On to `Cc1ccc(CCNC(=O)CN(c2ccc(C)cc2)S(=O)(=O)c2c(C)noc2C)cc1`, for which the survival is inactive: 71%. For `Cc1c(Cl)ccc2sc(N3CCN(C(=O)c4ccco4)CC3)nc12`, the survival was inactive: 69%. With `COc1ccccc1CNc1ccc(-c2nc(C(C)C)no2)cc1[N+](=O)[O-]` the figure was inactive: 55%. As for `CCOc1ccc(CNC(=O)c2cc3oc4ccccc4c3n2C)cc1`, the survival is inactive: 95%. As to `Cc1ccc(C)c(NC(=O)Cn2cc(C(=O)c3ccncc3)c(=O)c3cc(F)ccc32)c1`, the survival was inactive: 89%. Regarding `COc1ccc(NC(=O)Cn2cnc3sc(C)c(S(=O)(=O)N4CCN(C)CC4)c3c2=O)cc1OC`, the survival is inactive: 167%. As for `CN(C)c1ccc(CNc2nc(-c3ccco3)nn2S(=O)(=O)c2ccc3ccccc3c2)cc1`, the survival is inactive: 69%. With `O=C(CSc1nc2c(c(=O)[nH]1)CCC2)Nc1ccccc1F` the figure was inactive: 73%; with `Cc1cc(C)c2c(CC(=O)N(Cc3ccc(N(C)C)cc3)Cc3ccco3)coc2c1`, active: 42%; with `COc1ccccc1OCCn1cc(C(=O)c2cccs2)c2ccccc21`, inactive: 142%. With `O=C(c1cc2c(=O)oc3ccccc3c2s1)N1CCN(c2cccc(Cl)c2)CC1` the figure was inactive: 170%; with `COc1ccc(Cl)cc1NC(=O)Cn1ccn(Cc2ccc(C)cc2)c(=O)c1=O`, inactive: 47%. In the case of `CCOC(=O)N1CCN(C(=O)CN(c2cccc(Cl)c2C)S(=O)(=O)c2ccc(C)cc2)CC1`, the survival is inactive: 119%.

For the compound `O=C(Nc1ccccc1)c1cccc2c(=O)c3c([nH]c12)CCCC3`, the survival is inactive: 70%. For the compound `Cc1cccc(-n2c(SCC(N)=O)nc3c(oc4ccccc43)c2=O)c1`, the survival was inactive: 81%. Turning to `CCOc1ccccc1NC(=O)C1CCN(S(=O)(=O)c2c(C)noc2/C=C/c2ccc(C)cc2)CC1`, the survival is inactive: 90%. In the case of `COC(=O)c1ccc(Nc2ncnc3c2nc2n3CCCC2)cc1`, the survival was inactive: 119%.

As to `CCOc1ccc(C(=O)NCCn2cc(SCC(=O)NCCc3ccc(OC)c(OC)c3)c3ccccc32)cc1`, the survival was inactive: 78%. With `Cc1ccc(NC(=O)Cn2c(-c3ccc4c(c3)OCO4)cn(-c3ccccc3)c2=O)cc1C` the figure was inactive: 74%; with `CC1CCCCN1C(=O)c1ccc(S(=O)(=O)NCc2cccnc2)cc1` (stereo unspecified), inactive: 95%; with `CCC1CN(C(=O)N2CCC(C(=O)NCc3ccc(OC)cc3OC)CC2)c2cc(C)ccc2O1` (stereo unspecified), inactive: 79%. With `Cc1cccc(NC(=O)Cn2cc(CO)c3ccccc32)c1` the figure was inactive: 75%. With `COCCn1c(SCC(=O)c2cc(C)ccc2C)nc2cc(C(=O)NC3CCCC3)ccc2c1=O` the figure was inactive: 81%. As to `Cc1cc(C)cc(NC(=O)c2cc(S(=O)(=O)N3CCCCCC3)cn2C)c1`, the survival is inactive: 85%. With `O=C(Nc1ccccc1NC(=O)c1cccs1)c1cccs1` the figure was inactive: 74%; with `CCN(CC)CCN(C(=O)c1ccco1)c1nc2ccc(Cl)cc2s1`, inactive: 66%. `Cn1c(SCc2ccc(F)cc2)nc2ccc(C(=O)NCc3ccc(F)cc3)cc21`: the survival is inactive: 63%. For `Cc1nn(CC(=O)NC2CC2)c(=O)c2cc3ccccc3n12`, the survival is inactive: 91%. Take `Cc1ccc(-n2nc3c(N4CCC(C(=O)NC(C)C)CC4)nnc(C)c3c2C)cc1`: the survival is inactive: 100%. Take `CCC(Sc1nc(N)cc(=O)[nH]1)C(=O)Nc1ccccc1C#N` (stereo unspecified): the survival is inactive: 79%. For `Cc1ccccc1OCC(=O)OCc1cc(=O)n2ccsc2n1`, the survival was inactive: 84%. In the case of `Cc1ccc2cc3cc(C(=O)Nc4ccc(F)cc4Cl)oc3nc2c1`, the survival is inactive: 71%.

As to `CCN(CC)S(=O)(=O)c1ccc2c(c1)N(CC(=O)N1CCN(c3cccc(C(F)(F)F)c3)CC1)C(=O)CO2`, the survival is inactive: 68%. With `O=C(NC1CCSC1=O)C1CCCCC1` (stereo unspecified) the figure was inactive: 98%; with `CCOc1ccc(-c2nc(SC(C(C)=O)C(=O)N(C)C)c3c(=O)n(C)c(=O)n(C)c3n2)cc1` (stereo unspecified), inactive: 77%. `CCc1ccc(NC(=O)c2ccc3c(c2)nnn3CC)cc1`: the survival was active: -4%. Turning to `CCn1c(C(=O)NCc2cccc(Br)c2)cc2oc3ccccc3c21`, the survival was inactive: 50%.

`COC(=O)c1ccc(NC(=O)c2c(NCc3ccc(C)o3)sc3c2CCCC3)cc1`: the survival is inactive: 84%. For `CCc1nnc(NC(=O)c2cc(=O)c3cc(C)c(C)cc3o2)s1`, the survival is active: 36%. Regarding `COc1cc(-c2noc(-c3cc4cc(F)ccc4oc3=O)n2)cc(OC)c1OC`, the survival was inactive: 99%. Turning to `CN1C(=O)C2(c3ccccc31)N(c1ccccc1)C(=O)CS2(=O)=O` (stereo unspecified), the survival is inactive: 91%. Take `CSc1ccc(CCNC(=O)C2CCN(c3nc4ccccc4nc3C(F)(F)F)CC2)cc1`: the survival is inactive: 69%.

Turning to `O=C(Cn1c(=O)n(Cc2ccc3c(c2)OCO3)c(=O)c2oc3ccccc3c21)Nc1ccccc1`, the survival was inactive: 73%. On to `Cc1ccccc1CNC(=O)C1CCN(c2nnc(C)c3c(C)n(-c4ccccc4)nc23)CC1`, for which the survival is inactive: 90%. For the compound `CCc1ccc(-c2nc3ccc(Br)cc3c(C(=O)O)c2C)s1`, the survival is active: 39%. Consider `COc1ccc(-c2nc3scc(CCNS(=O)(=O)c4c(C)noc4C)n3n2)cc1`, for which the survival was inactive: 101%.

As to `Cc1ccc(NC(=O)/C=C/c2ccccc2)c(Br)c1`, the survival was inactive: 142%. As to `CC(C(=O)O)n1ncc2ccccc2c1=O` (stereo unspecified), the survival was inactive: 88%. Turning to `Cc1ccc(C)c(CN2C(=O)c3ccccc3S(=O)(=O)c3ccc(C(=O)Nc4ccccc4C(F)(F)F)cc32)c1`, the survival was inactive: 84%. With `CC(C)CC(C(=O)O)n1c(O)c(C2=c3ccccc3=NC2=O)sc1=S` (stereo unspecified), the survival is inactive: 87%. With `Cc1cc(C)c2oc(C(=O)Nc3sc4c(c3C(=O)NCc3ccco3)CCC4)cc(=O)c2c1` the figure was inactive: 70%; with `CCOC(=O)c1cccc(NC(=O)c2cc(CN3CCCC3)on2)c1`, inactive: 72%; with `COc1ccc(/C=C\c2onc(C)c2S(=O)(=O)N2CCC(C(=O)Nc3ccccc3OC)CC2)cc1`, inactive: 106%. For `CCOC(=O)Cc1csc(NC(=O)CSc2nnc(-c3ccc(F)cc3)o2)n1`, the survival was inactive: 126%. With `COc1ccc(OC)c(NC(=O)CSc2c3c(nc4ccccc24)CCCC3)c1` the figure was inactive: 93%. With `O=C1NC(c2ccc(Cl)cc2)Nc2ccccc21` (stereo unspecified), the survival is inactive: 87%.

Turning to `Cc1ccc(S(=O)(=O)NCCc2nnc3ccc(SCc4ccccc4C)nn23)cc1`, the survival was inactive: 60%. Regarding `COc1ccc(N2CCN(C(=O)Cn3cnc4nc5c(cc4c3=O)CCCC5)CC2)cc1`, the survival is inactive: 94%.

For `COc1ccc(NC(=O)CCNS(=O)(=O)c2cccc3nonc23)cc1`, the survival is active: 50%. For `CCCC(=O)N1c2ncnn2C2(CCCCC2)[C@@H]2CCCC[C@@H]21`, the survival is inactive: 81%. On to `Cc1ccc(OCC(=O)NCC2(N3CCN(C)CC3)CCCCC2)cc1C`, for which the survival is inactive: 80%. On to `CCS(=O)(=O)N1N=C(c2ccc(C)cc2)CC1c1cc2ccc(OC)cc2nc1Cl` (stereo unspecified), for which the survival is active: 44%. Take `COc1ccccc1OC(C)C(=O)NCC1(N2CCOCC2)CCCCC1` (stereo unspecified): the survival is inactive: 65%. `Cc1ccc(Cn2cccc2C2=NC(C)(C)CO2)cc1`: the survival was active: 45%. Turning to `CC(C)Oc1ccc(C(=O)N2CCCC2C(=O)O)cc1` (stereo unspecified), the survival is inactive: 92%. As for `CC1CCN(S(=O)(=O)c2ccc3c(c2)N(CC(=O)NC(C)C)C(=O)CS3)CC1`, the survival is inactive: 90%.

Take `CCc1nn(CCCC(=O)NCc2ccccc2Br)c(=O)c2cc3occc3n12`: the survival was inactive: 92%. For `Cc1ccc(OC(=O)c2cc(-c3ccc4c(c3)OCCO4)on2)c(C)c1`, the survival was active: -2%.

Take `O=C(CSc1nc2ccccc2c(=O)n1CCC(=O)NC1CCCCC1)Nc1ccccc1Cl`: the survival is inactive: 81%. With `COC(=O)c1sc2cccc(F)c2c1S(=O)(=O)Nc1cc(OC)cc(OC)c1` the figure was active: 8%; with `Cc1nn(CCCC(=O)NCc2ccccc2)c(=O)c2nn(-c3ccccc3)c(C)c12`, inactive: 49%. Consider `COc1cc(CN2CCC(N)CC2)cc(OC)c1OC`, for which the survival is inactive: 83%. On to `CCC(=O)N1CCc2cc(S(=O)(=O)NCCC(=O)Nc3ccc(OC)c(Cl)c3)ccc21`, for which the survival was inactive: 82%. On to `CCOc1ccc(CC(=O)Nc2nnc3n2CCS3)cc1`, for which the survival is inactive: 71%. For the compound `CCc1nnc2c(NCc3ccccc3OC)nc3ccccc3n12`, the survival is inactive: 128%.
